Experimental data reported in the supplement of paper PMC10037445.
The full ranking holds about 2,900 compounds; the median of “NF-kB SEAP reporter activity, fold change vs agonist alone” is about 0.99, and the highest 2% start at about 2.6. The list shows a part of the results.

Assays:
RAW-Dual [1] = assay: NF-kB SEAP reporter activity, fold change vs agonist alone; higher = enhanced NF-kB activity
Outline: (§1)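 Library stock was pin-tooled at 50 nL into 384-well plates of RAW-Dual macrophages (50,000 cells/well, DMEM), followed 1 h later by a PRR agonist, and the cells were kept at 37 °C, 5% CO2. Supernatant collected after 20 hours was read for IRF by QuantiLuc luminescence and for NF-κB by QuantiBlue absorbance at 620 nm. Reporter activity is fold change over agonist-alone wells, and a well counted as cytotoxic when its IncuCyte confluency was below 70% of agonist controls in both mask sets.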

RAW-Dual [2] = assay: NF-kB SEAP reporter activity, fold change vs agonist alone; cytotoxicity flag (confluency mask): not cytotoxic; higher = enhanced NF-kB activity
Outline: as §1

RAW-Dual [3] = assay: NF-kB SEAP reporter activity, fold change vs agonist alone; cytotoxicity flag (confluency mask): cytotoxic (confluency <70% of control); higher = enhanced NF-kB activity
Outline: as §1

[4] = library stock concentration (final ~1000-fold dilution): 10 mM, cytotoxicity flag (confluency mask): not cytotoxic, agonist: Imiquimod (TLR7) […]
[5] = library stock concentration (final ~1000-fold dilution): 10 mM, cytotoxicity flag (confluency mask): not cytotoxic, agonist: MPLA (TLR4) […]
[6] = agonist: ODN 1826 (TLR9) 0.5 ug/mL
[7] = agonist: Pam2CSK4 (TLR2/6) 0.1 ug/mL
[8] = agonist: Pam3CSK4 (TLR2/1) 0.1 ug/mL
[9] = library stock concentration (final ~1000-fold dilution): 10 mM, cytotoxicity flag (confluency mask): cytotoxic (confluency <70% of control), agonist: Imiquimod (TLR7) […]
[10] = library stock concentration (final ~1000-fold dilution): 10 mM, cytotoxicity flag (confluency mask): cytotoxic (confluency <70% of control), agonist: MPLA (TLR4) […]

## Cl.O=C(O)/C=C/c1ccc(Cn2ccnc2)cc1
RAW-Dual [1]; [4]
  NF-kB SEAP reporter activity: 0.935
RAW-Dual [1]; [5]
  NF-kB SEAP reporter activity: 1.02

## Cl.O=C(O)/C=C/c1ccc(Cn2ccnc2)cc1 (library stock concentration (final ~1000-fold dilution): 10 mM)
RAW-Dual [2]; agonist: LPS (TLR4) 0.1 ug/mL
  NF-kB SEAP reporter activity: 1.01
RAW-Dual [2]; [6]
  NF-kB SEAP reporter activity: 0.938
RAW-Dual [2]; [7]
  NF-kB SEAP reporter activity: 1.06
RAW-Dual [2]; [8]
  NF-kB SEAP reporter activity: 1.09

## Nc1nc(NCCNc2ncc(-n3ccnc3)c(-c3ccc(Cl)cc3Cl)n2)ccc1[N+](=O)[O-] (library stock concentration (final ~1000-fold dilution): 10 mM)
RAW-Dual [2]; agonist: LPS (TLR4) 0.1 ug/mL
  NF-kB SEAP reporter activity: 2.5
RAW-Dual [2]; [6]
  NF-kB SEAP reporter activity: 2.96
RAW-Dual [2]; [7]
  NF-kB SEAP reporter activity: 1.46
RAW-Dual [2]; [8]
  NF-kB SEAP reporter activity: 2.83

## Nc1nc(NCCNc2ncc(-n3ccnc3)c(-c3ccc(Cl)cc3Cl)n2)ccc1[N+](=O)[O-]
RAW-Dual [1]; [4]
  NF-kB SEAP reporter activity: 2.49
RAW-Dual [1]; [5]
  NF-kB SEAP reporter activity: 2.25

## O=C(NC1(c2ccccc2)CC1)c1c(CN2CCC(N3CCCCC3)CC2)c(-c2cccc(C(F)(F)F)c2)nc2cc(Br)ccc12 (library stock concentration (final ~1000-fold dilution): 10 mM)
RAW-Dual [3]; agonist: LPS (TLR4) 0.1 ug/mL
  NF-kB SEAP reporter activity: 2.58

## CCN(CC)c1ccc2cc(C(=O)O)c(=O)oc2c1
RAW-Dual [1]; [5]
  NF-kB SEAP reporter activity: 0.899

## CCN(CC)c1ccc2cc(C(=O)O)c(=O)oc2c1 (library stock concentration (final ~1000-fold dilution): 10 mM)
RAW-Dual [2]; agonist: LPS (TLR4) 0.1 ug/mL
  NF-kB SEAP reporter activity: 1.23
RAW-Dual [2]; [6]
  NF-kB SEAP reporter activity: 0.807
RAW-Dual [2]; [7]
  NF-kB SEAP reporter activity: 1.3
RAW-Dual [2]; [8]
  NF-kB SEAP reporter activity: 0.86

## CSC(=N)N (library stock concentration (final ~1000-fold dilution): 10 mM water)
RAW-Dual [2]; agonist: LPS (TLR4) 0.1 ug/mL
  NF-kB SEAP reporter activity: 1.13
RAW-Dual [2]; [6]
  NF-kB SEAP reporter activity: 1.14
RAW-Dual [2]; [7]
  NF-kB SEAP reporter activity: 1.2
RAW-Dual [2]; [8]
  NF-kB SEAP reporter activity: 1.26

## CSC(=N)N
RAW-Dual [1]; library stock concentration (final ~1000-fold dilution): 10 mM water, cytotoxicity flag (confluency mask): not cytotoxic, agonist: Imiquimod (TLR7) […]
  NF-kB SEAP reporter activity: 0.949
RAW-Dual [1]; library stock concentration (final ~1000-fold dilution): 10 mM water, cytotoxicity flag (confluency mask): not cytotoxic, agonist: MPLA (TLR4) […]
  NF-kB SEAP reporter activity: 0.991

## CCN(CC)CCCC(C)Nc1c2ccc(Cl)cc2nc2ccc(OC)cc12.Cl.Cl (configuration not stated) (library stock concentration (final ~1000-fold dilution): 10 mM)
RAW-Dual [3]; agonist: LPS (TLR4) 0.1 ug/mL
  NF-kB SEAP reporter activity: 0.204
RAW-Dual [3]; [6]
  NF-kB SEAP reporter activity: 0.174
RAW-Dual [3]; [7]
  NF-kB SEAP reporter activity: 0.0921
RAW-Dual [3]; [8]
  NF-kB SEAP reporter activity: 0.216

## CCN(CC)CCCC(C)Nc1c2ccc(Cl)cc2nc2ccc(OC)cc12.Cl.Cl (configuration not stated)
RAW-Dual [1]; [9]
  NF-kB SEAP reporter activity: 0.24
RAW-Dual [1]; [10]
  NF-kB SEAP reporter activity: 0.536

## COCCNC(=O)Nc1ccc2nc(-c3cccs3)c(-c3cccs3)nc2c1 (library stock concentration (final ~1000-fold dilution): 10 mM)
RAW-Dual [3]; agonist: LPS (TLR4) 0.1 ug/mL
  NF-kB SEAP reporter activity: 0.606
RAW-Dual [3]; [6]
  NF-kB SEAP reporter activity: 0.322
RAW-Dual [3]; [7]
  NF-kB SEAP reporter activity: 0.0902
RAW-Dual [3]; [8]
  NF-kB SEAP reporter activity: 0.284

## COCCNC(=O)Nc1ccc2nc(-c3cccs3)c(-c3cccs3)nc2c1
RAW-Dual [1]; [9]
  NF-kB SEAP reporter activity: 0.238
RAW-Dual [1]; [10]
  NF-kB SEAP reporter activity: 0.305

## CC(C)c1ccccc1Cc1cc(C(=O)Nc2ccc(S(=O)(=O)c3ccccc3C(C)(C)C)cc2)c(O)c(O)c1O
RAW-Dual [1]; [4]
  NF-kB SEAP reporter activity: 2.56
RAW-Dual [1]; [5]
  NF-kB SEAP reporter activity: 2.31

## CC(C)c1ccccc1Cc1cc(C(=O)Nc2ccc(S(=O)(=O)c3ccccc3C(C)(C)C)cc2)c(O)c(O)c1O (library stock concentration (final ~1000-fold dilution): 10 mM)
RAW-Dual [2]; agonist: LPS (TLR4) 0.1 ug/mL
  NF-kB SEAP reporter activity: 2.37
RAW-Dual [2]; [6]
  NF-kB SEAP reporter activity: 1.67
RAW-Dual [2]; [7]
  NF-kB SEAP reporter activity: 0.541
RAW-Dual [2]; [8]
  NF-kB SEAP reporter activity: 1

## Cc1cc(C(=O)Nc2nc3cccc(Cl)c3n2C2CCCCN(C(=O)/C=C/CN(C)C)C2)ccn1 (configuration not stated)
RAW-Dual [1]; [4]
  NF-kB SEAP reporter activity: 0.218
RAW-Dual [1]; [5]
  NF-kB SEAP reporter activity: 0.678

## Cc1cc(C(=O)Nc2nc3cccc(Cl)c3n2C2CCCCN(C(=O)/C=C/CN(C)C)C2)ccn1 (configuration not stated) (library stock concentration (final ~1000-fold dilution): 10 mM)
RAW-Dual [2]; agonist: LPS (TLR4) 0.1 ug/mL
  NF-kB SEAP reporter activity: 0.403
RAW-Dual [2]; [6]
  NF-kB SEAP reporter activity: 0.168
RAW-Dual [2]; [7]
  NF-kB SEAP reporter activity: 0.098
RAW-Dual [2]; [8]
  NF-kB SEAP reporter activity: 0.15

## CC(CN1c2ccccc2Sc2ccccc21)N(C)C.Cl (configuration not stated)
RAW-Dual [1]; [4]
  NF-kB SEAP reporter activity: 1.81
RAW-Dual [1]; [5]
  NF-kB SEAP reporter activity: 1.24

## CC(CN1c2ccccc2Sc2ccccc21)N(C)C.Cl (configuration not stated) (library stock concentration (final ~1000-fold dilution): 10 mM)
RAW-Dual [2]; agonist: LPS (TLR4) 0.1 ug/mL
  NF-kB SEAP reporter activity: 0.982
RAW-Dual [2]; [6]
  NF-kB SEAP reporter activity: 0.911
RAW-Dual [2]; [7]
  NF-kB SEAP reporter activity: 0.74
RAW-Dual [2]; [8]
  NF-kB SEAP reporter activity: 0.803

## CN(C)S(=O)(=O)c1ccc2c(c1)/C(=C/c1cc3c([nH]1)CCCC3)C(=O)N2 (library stock concentration (final ~1000-fold dilution): 10 mM)
RAW-Dual [2]; agonist: LPS (TLR4) 0.1 ug/mL
  NF-kB SEAP reporter activity: 0.938
RAW-Dual [2]; [6]
  NF-kB SEAP reporter activity: 1.46
RAW-Dual [2]; [7]
  NF-kB SEAP reporter activity: 0.81
RAW-Dual [2]; [8]
  NF-kB SEAP reporter activity: 1.09

## CN(C)S(=O)(=O)c1ccc2c(c1)/C(=C/c1cc3c([nH]1)CCCC3)C(=O)N2
RAW-Dual [1]; [4]
  NF-kB SEAP reporter activity: 1.08
RAW-Dual [1]; [5]
  NF-kB SEAP reporter activity: 0.662

## O=C(O)CC(=O)C(=O)O (library stock concentration (final ~1000-fold dilution): 10 mM)
RAW-Dual [2]; agonist: LPS (TLR4) 0.1 ug/mL
  NF-kB SEAP reporter activity: 1.22
RAW-Dual [2]; [6]
  NF-kB SEAP reporter activity: 0.938
RAW-Dual [2]; [7]
  NF-kB SEAP reporter activity: 1.07
RAW-Dual [2]; [8]
  NF-kB SEAP reporter activity: 0.964

## O=C(O)CC(=O)C(=O)O
RAW-Dual [1]; [4]
  NF-kB SEAP reporter activity: 0.891
RAW-Dual [1]; [5]
  NF-kB SEAP reporter activity: 1.04

## Cc1ccc(C2OC(CO)C(O)C(O)C2O)cc1Cc1ccc(-c2ccc(F)cc2)s1.Cc1ccc(C2OC(CO)C(O)C(O)C2O)cc1Cc1ccc(-c2ccc(F)cc2)s1.O (configuration not stated) (library stock concentration (final ~1000-fold dilution): 10 mM)
RAW-Dual [3]; agonist: LPS (TLR4) 0.1 ug/mL
  NF-kB SEAP reporter activity: 0.276
RAW-Dual [3]; [6]
  NF-kB SEAP reporter activity: 0.801
RAW-Dual [3]; [7]
  NF-kB SEAP reporter activity: 1.01
RAW-Dual [3]; [8]
  NF-kB SEAP reporter activity: 0.957

## Cc1ccc(C2OC(CO)C(O)C(O)C2O)cc1Cc1ccc(-c2ccc(F)cc2)s1.Cc1ccc(C2OC(CO)C(O)C(O)C2O)cc1Cc1ccc(-c2ccc(F)cc2)s1.O (configuration not stated)
RAW-Dual [1]; [9]
  NF-kB SEAP reporter activity: 2.07
RAW-Dual [1]; [10]
  NF-kB SEAP reporter activity: 0.351
